# According to ChEMBL document CHEMBL4888484, “Replenishing the malaria drug discovery pipeline: Screening and hit evaluation of the MMV Hit Generation Library 1 (HGL1) against asexual blood stage Plasmodium falciparum ,using a nano luciferase reporter read-out” (2022):
# Hit rate of the full screen: of about 150,000 compounds, about 540 (0.36%) showed an effect of 50% or more. Some of the results follow.
# System: Plasmodium falciparum
# Assay: Primary screen in NF54 nanoGlo assay, in single point, at 2uM, 72h; a lower Z score goes with more inhibition
# Type: functional, Erythrocyte
# Settings: timepoint 72 hour
Structure (SMILES),% Inhibition [%],Z score
O=C(CN1C(=O)[C@@H]2CCCCN2C(=O)c2ccccc21)Nc1nccs1,-13,1.69
CC(C)(C)[C@H]1CCCN(c2ccc(C#N)cc2CS(N)(=O)=O)C1,-8,1.55
O=C(N[C@H]1CCN(c2ncnc3c2CCC3)C1)c1cnccn1,-6,0.97
CCN(Cc1nc2c(s1)C[C@@H](C)CC2)C(=O)c1cnsn1,0,0.06
O=C1NCCCc2cc(O[C@H]3CCCN(c4cccc(F)c4)C3=O)ccc21,-7,0.99
C[C@H](NC(=O)CCC1CCN(C)CC1)[C@H](O)c1ccc(O)cc1,-7,0.82
O=C(NC1CC1)c1cccc(CCOc2ccc(F)cc2)c1,3,-0.46
Cc1occc1C(=O)NC1(c2ccccc2)CCOCC1,33,-4.44
CNC(=O)c1ccc(NC2CCCCCC2OC)nn1 (stereo not drawn),-16,1.76
COC(=O)C(C)(C)CNCc1scnc1C,-10,1.31
CCOc1cc(CCCNC(=O)[C@@H]2CCO2)ccc1OC,-10,1.38
CCc1nc(NC2CCC(NC(=O)c3cccc(F)c3)CC2)c2c(C)nn(-c3ccccc3C)c2n1 (stereo not drawn),16,-1.88
CC1(C)CCCN(C(=O)c2ccc3c(c2)NC(=O)CO3)CC1,-9,0.94
CC(NCC(O)C(C)C)c1csnn1 (stereo not drawn),4,-0.64
CNc1ccc(Nc2nc(C(C)C)ns2)cn1,-4,0.43
CCCc1nc(C(=O)NC[C@H]2CCCN(C(=O)c3oc(C)nc3C)C2)cs1,-6,0.55
CC(C)N1CCN(C(=O)C2C3C(=O)N(CCc4ccncc4)C[C@@]34C=C[C@@H]2O4)CC1 (stereo partly drawn),-11,2.24
Cc1ccc(NC(=O)Cn2nc3c4sc(N(C)C)nc4ncn3c2=O)cc1F,-19,1.81
CC(C)COCC(C)NC(=O)NC(C)C1CCOCC1 (stereo not drawn),0,-0.02
O=C(NCCc1ccccc1)Nc1ccc2c(c1)N(C(=O)c1ccccc1)CCC2,-2,0.47
CCCN1C(=O)COc2cc(-c3noc(C(=O)NC4CCN(Cc5ccccc5)CC4)n3)ccc21,7,-0.78
Cc1cc(OCc2noc(-c3ccc(C(F)(F)F)cc3)n2)ccc1F,-4,0.8
CC(=O)N[C@H]1C[C@@H](c2ccc(O)c(Cl)c2)O[C@@H](C2CCCCC2)C1,0,0.09
CC(C)CCc1noc(CNS(=O)(=O)c2cccs2)n1,3,-0.52
